{"source": "PubChem BioAssay AID686971", "about": "(National Center for Advancing Translational Sciences (NCATS), 2013)", "note": "Among all 360,000 compounds or so, about 7,500 (2.1%) were called active. Inconclusive means that the source gave no clear call. Such entries were picked first, then a sample of the others. The call rests on the fitted dose curve; in most records, active means well fitted cell-killing curve with a large enough effect; inconclusive means small, poorly fitted or top-dose-only effect, or effect the other way, or another doubt; inactive means no such curve, though single readings can be large or run the other way. Potencies of inconclusive entries are left out as doubtful fits. Potency means the concentration at half of the fitted maximal effect; tags describe the fitted curve by direction and shape."}
{"assay": "qHTS for induction of synthetic lethality in tumor cells producing 2HG: qHTS for the HT-1080-IDH1KD cell line;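 on activity, negative = toxicity: 0% = DMSO wells and -100% = cell-free medium wells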", "details": "HT-1080 IDH1 knockdown viability, ATP luminescence, 48 h; activity, negative = toxicity: at 46.1 µM (top of the series) unless noted", "summary_of_the_method": "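CellTiter-Glo luminescence after 48 h compound exposure at 37 degrees C of IDH1-knockdown HT-1080 cells in 5% FBS RPMI. %Activity scaled between DMSO wells and cell-free media wells, with curves fitted and assigned curve classes.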"}
{"compound": "CN(C)C(=O)c1cccc(COc2ccc(N3C(N)=NC(N)=NC3(C)C)cc2Cl)c1", "Potency": "inconclusive [cytotoxic, full curve, poor fit]"}
{"compound": "CCCC(=O)NC(c1ccccc1)c1ccc2cccnc2c1O", "note": "(stereo not given)", "Potency": "inconclusive [cytotoxic, full curve]"}
{"compound": "c1ccc(Sc2ncnc3ccccc23)cc1", "Potency": "inconclusive [cytotoxic, single point]"}
{"compound": "O=S(=O)(Nc1ccc(-c2csc(-c3ccccc3)n2)cc1)c1ccccc1", "Potency": "inconclusive [cytotoxic, single point]"}
{"compound": "COc1ccc(Cl)cc1NC(=O)COC(=O)c1c(-c2ccccc2)noc1C", "Potency": "inactive"}
{"compound": "Clc1ccc(CSc2nnc(-c3ccccn3)n2Cc2ccco2)cc1Cl", "Potency": "inconclusive [cytotoxic, single point]"}
{"compound": "CC(C)(C)c1ccc(CC(=O)N2CCC2(C)C(=O)NCc2ccc3c(c2)OCO3)cc1", "note": "(stereo not given)", "Potency": "inconclusive [cytotoxic, single point]"}
{"compound": "COc1cc(/C=C/C(=O)c2ccc(NS(=O)(=O)c3ccc(C)cc3)cc2)cc(OC)c1O", "Potency": "inconclusive [cytotoxic, single point]"}
{"compound": "CCOc1ccc(/C=C/C(O)=C2/C(=O)NC3(C)CC2c2ccccc2O3)cc1OC", "note": "(stereo not given)", "Potency": "inconclusive [cytotoxic, full curve]"}
{"compound": "COC(=O)CN1C(=O)Nc2ccc(Br)cc2C1c1ccccc1Cl", "note": "(stereo not given)", "Potency": "inconclusive [cytotoxic, single point]"}
{"compound": "Cc1cccc2[nH]c(CN(C)C(=O)CC3C(=O)NCCN3CC(C)(C)C)nc12", "note": "(stereo not given)", "Potency": "inactive"}
{"compound": "O=C(N/N=C/c1sc(N2CCOCC2)nc1-c1ccccc1)c1cccc(S(=O)(=O)N2CCOCC2)c1", "Potency": "inconclusive [cytotoxic, partial curve]"}
{"compound": "CCc1nc2sc3ccccc3c(=O)c2c(=O)n1Cc1ccco1", "Potency": "active: 25.9 µM"}
{"compound": "COC(=O)CCCNc1ncccc1[N+](=O)[O-]", "activity, negative = toxicity": "inconclusive: 30.5%"}
{"compound": "c1ccc(Nc2nc(NCc3ccco3)c3ccccc3n2)cc1", "Potency": "active: 23.1 µM"}
{"compound": "O=CNc1cc(-c2cccc(O)c2)cn2c(-c3ccc(F)cc3)cnc12", "activity, negative = toxicity": "inconclusive: -25.7% [cytotoxic]"}
{"compound": "CC(=O)c1ccc(NC(=O)Nc2ccc(Cl)cc2)cc1", "Potency": "inactive"}
{"compound": "C(=C\\c1ccccc1)/C=N/Nc1nc2ccccc2[nH]1", "Potency": "inconclusive [cytotoxic, single point]"}
{"compound": "Oc1ccc(/C=N\\Nc2nncc(-c3ccccc3)n2)cc1", "Potency": "inconclusive [cytotoxic, partial curve]"}
{"compound": "Cc1ccc(S(=O)(=O)N2[C@@H](c3ccc(C(C)(C)C)cc3)C(C(=O)O)=CC[C@H]2c2ccc(C(C)C)cc2)cc1", "Potency": "inconclusive [cytotoxic, single point]"}
{"compound": "CC(=O)Nc1ccc(CN(C)c2c(C)nc3ccc(C(=O)NC4CCN(Cc5ccccc5)CC4)cn23)cc1", "Potency": "inconclusive [cytotoxic, single point]"}
{"compound": "C[C@H](CO)N1C[C@H](C)[C@@H](CN(C)S(=O)(=O)c2cccs2)Oc2ccc(NS(=O)(=O)c3ccccc3)cc2C1=O", "Potency": "inactive"}
{"compound": "Cc1ccc2cc(CN(CCN3CCCC3)C(=O)Nc3ccccc3)c(=O)[nH]c2c1C", "Potency": "inconclusive [cytotoxic, single point]"}
{"compound": "CC(=NNC(=O)Cn1ccc(C(F)(F)F)n1)c1ccc(-n2ccnc2)cc1", "Potency": "inactive"}
{"compound": "CCOc1ccc(CC(=O)N2CCN(c3ccc(N4CCOCC4)nn3)CC2)cc1OCC", "activity, negative = toxicity": "inconclusive: -30.2% [cytotoxic]"}
{"compound": "COc1ccc(CCC(=O)NC2CCCCC2)cc1", "Potency": "inactive"}
{"compound": "CC(C)CC(=O)NC(c1ccccc1Cl)c1c(O)ccc2ccccc12", "note": "(stereo not given)", "Potency": "inconclusive [cytotoxic, single point]"}
{"compound": "CN(C)c1nc(N/N=C\\c2ccc(Cl)c([N+](=O)[O-])c2)nc(Nc2ccc(F)cc2)n1", "Potency": "inconclusive [cytotoxic, single point]"}
{"compound": "CCCc1ccc(S(=O)(=O)NCc2nnc(SC)n2C)cc1", "activity, negative = toxicity": "inconclusive: 30.5%"}
{"compound": "CCC(=O)Nc1cccc2c1C(=O)N(C)C2=O", "Potency": "inactive"}
{"compound": "CCCCC(=O)c1c(O)c2ccccc2oc1=O", "Potency": "inconclusive [cytotoxic, single point]"}
{"compound": "CCN(CC)S(=O)(=O)c1cccc(NC(=O)CCNC(=O)NC23CC4CC(CC(C4)C2)C3)c1", "Potency": "inactive"}
{"compound": "COc1cc(C)c(C(=O)CC(=O)c2c(C)cc(OC)cc2C)c(C)c1", "Potency": "inconclusive [cytotoxic, single point]"}
{"compound": "O=C(CCCc1nc(-c2ccccc2Cl)no1)NCc1cccnc1", "Potency": "inconclusive [cytotoxic, single point]"}
{"compound": "CCCCC(CC)CNC(=O)C1CC=CCC1C(=O)O", "note": "(stereo not given)", "Potency": "inactive"}
{"compound": "Cc1noc(C)c1COC(=O)c1cccc(S(=O)(=O)N2CCCCCC2)c1", "Potency": "active: 20.6 µM"}
{"compound": "CC(=O)Nc1ccccc1C(=O)C(=O)Nc1cccc(C(=O)N2CC(C)CC(C)C2)c1", "note": "(stereo not given)", "Potency": "inconclusive [cytotoxic, single point]"}
{"compound": "O=C(/C=C/c1ccccc1)NC(=S)NNC(=O)c1cnccn1", "Potency": "inconclusive [cytotoxic, full curve]"}
{"compound": "Cc1ccc(-c2nc3ccc(C)cn3c2Cc2cccc(F)c2)cc1", "Potency": "inconclusive [cytotoxic, single point]"}
{"compound": "Cc1[nH]c2ccccc2c1C(=O)CN1CCN(C/C=C/c2ccccc2)CC1", "Potency": "inconclusive [cytotoxic, single point]"}
{"compound": "COc1ccc(/C=N/NC(=O)CCn2cnc(-c3ccccc3)c2-c2ccccc2)cc1", "Potency": "active: 3.26 µM"}
{"compound": "CCCn1c(=O)c(C(=O)NNS(=O)(=O)c2ccc(C)cc2)c(O)c2ccccc21", "Potency": "active: 32.6 µM"}
{"compound": "O=C(/C=C/c1cccc(Cl)c1)c1ccc([N+](=O)[O-])o1", "Potency": "inconclusive [cytotoxic, full curve]"}
{"compound": "Cc1ccc(C(=O)NCC(=O)NCC(c2cccs2)N(C)C)cc1C", "note": "(stereo not given)", "Potency": "inactive"}
{"compound": "COc1ccc(C)c2sc(N(CCCN(C)C)C(=O)c3ccc4c(c3)OCCO4)nc12", "Potency": "inconclusive [cytotoxic, single point]"}
